Some of the results follow.
Columns and labels:
Assay in all cases: glycan array binding signal (z-score within array); higher = stronger binding
Conditions in all cases: glycan notation: IUPAC condensed, linker removed
[1] = target: GlcNAc(a1-6)Gal(b1-4)GlcNAc
How it was run: (§1)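 Columns mapping to the same glycan were averaged after glycan names were converted to IUPAC-condensed notation. The data come from 3228 arrays in the Consortium for Functional Glycomics database, limited to those with an available protein sequence. Binding is reported as a within-array Z-score averaged across arrays of one protein sequence and across linkers.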

[2] = target: GlcNAc(b1-2)Gal(b1-3)GalNAc
How it was run: as §1

[3] = target: GlcNAc(b1-2)Man(a1-3)[GlcNAc(b1-2)Man(a1-6)]Man(b1-4)GlcNAc(b1-4)GlcNAc
How it was run: as §1

[4] = target: GlcNAc(b1-2)Man(a1-3)[GlcNAc(b1-2)Man(a1-6)]Man(b1-4)GlcNAc(b1-4)[Fuc(a1-6)]GlcNAc
How it was run: as §1

[5] = target: GlcNAc(b1-2)Man(a1-3)[GlcNAc(b1-4)][GlcNAc(b1-2)Man(a1-6)]Man(b1-4)GlcNAc(b1-4)GlcNAc
How it was run: as §1

[6] = target: GlcNAc(b1-2)Man(a1-3)[GlcNAc(b1-4)][GlcNAc(b1-2)Man(a1-6)]Man(b1-4)GlcNAc(b1-4)[Fuc(a1-6)]GlcNAc
How it was run: as §1

[7] = target: GlcNAc(b1-2)[GlcNAc(b1-4)]Man(a1-3)[GlcNAc(b1-2)Man(a1-6)]Man(b1-4)GlcNAc(b1-4)GlcNAc
How it was run: as §1

[8] = target: GlcNAc(b1-2)[GlcNAc(b1-4)]Man(a1-3)[GlcNAc(b1-4)][GlcNAc(b1-2)Man(a1-6)]Man(b1-4)GlcNAc(b1-4)GlcNAc
How it was run: as §1

[9] = target: GlcNAc(b1-2)[GlcNAc(b1-4)]Man(a1-3)[GlcNAc(b1-4)][GlcNAc(b1-2)[GlcNAc(b1-6)]Man(a1-6)]Man(b1-4)GlcNAc(b1-4)GlcNAc
How it was run: as §1

[10] = target: GlcNAc(b1-2)[GlcNAc(b1-4)]Man(a1-3)[GlcNAc(b1-4)][GlcNAc(b1-2)[GlcNAc(b1-6)]Man(a1-6)]Man(b1-4)GlcNAc(b1-4)[Fuc(a1-6)]GlcNAc
How it was run: as §1

[11] = target: GlcNAc(b1-2)[GlcNAc(b1-6)]Man(a1-6)[GlcNAc(b1-2)Man(a1-3)]Man(b1-4)GlcNAc(b1-4)GlcNAc
How it was run: as §1

[12] = target: GlcNAc(b1-2)[GlcNAc(b1-6)]Man(a1-6)[GlcNAc(b1-2)Man(a1-3)]Man(b1-4)GlcNAc(b1-4)[Fuc(a1-6)]GlcNAc
How it was run: as §1

[13] = target: GlcNAc(b1-2)[GlcNAc(b1-6)]Man(a1-6)[GlcNAc(b1-4)][GlcNAc(b1-2)Man(a1-3)]Man(b1-4)GlcNAc(b1-4)GlcNAc
How it was run: as §1

GlcNAc(b1-3)Fuc = target: GlcNAc(b1-3)Fuc
How it was run: as §1

GlcNAc(b1-3)Gal = target: GlcNAc(b1-3)Gal
How it was run: as §1

[14] = target: GlcNAc(b1-3)Gal(b1-3)GalNAc
How it was run: as §1

GlcNAc(b1-3)Gal(b1-4)Glc = target: GlcNAc(b1-3)Gal(b1-4)Glc
How it was run: as §1

[15] = target: GlcNAc(b1-3)Gal(b1-4)GlcNAc
How it was run: as §1

[16] = target: GlcNAc(b1-3)Gal(b1-4)GlcNAc(b1-2)Man(a1-3)[GlcNAc(b1-3)Gal(b1-4)GlcNAc(b1-2)Man(a1-6)]Man(b1-4)GlcNAc(b1-4)GlcNAc
How it was run: as §1

[17] = target: GlcNAc(b1-3)Gal(b1-4)GlcNAc(b1-2)Man(a1-3)[GlcNAc(b1-3)Gal(b1-4)GlcNAc(b1-2)Man(a1-6)]Man(b1-4)GlcNAc(b1-4)[Fuc(a1-6)]GlcNAc
How it was run: as §1

[18] = target: GlcNAc(b1-3)Gal(b1-4)GlcNAc(b1-2)[GlcNAc(b1-3)Gal(b1-4)GlcNAc(b1-6)]Man(a1-6)[GlcNAc(b1-3)Gal(b1-4)GlcNAc(b1-2)Man(a1-3)]Man(b1-4)GlcNAc(b1-4)GlcNAc
How it was run: as §1

[19] = target: GlcNAc(b1-3)Gal(b1-4)GlcNAc(b1-3)Gal(b1-4)GlcNAc
How it was run: as §1

B1: PX9961A-pdi-456-24-456 (Parabacteroides distasonis) (protein)
chain: KTSSTQLPTIDAISSVADLTNAVNGVYEQQATEVGSYGAEFTLLADLRSGDFQSISTVNHAGPMYRYQTGKNDEMVYSFYKLFYNSLARLNNVLAAAENLEGADVDILKGELYAMRALYHFDLARVFAKLPSTTDMNDLGIVLSTEVYPTDYIGTRATLQQTYDQILKDIETALPLLSKDKQTGHINYWGALAIRARAYLYLEKNKEALADCKEIIASSPYKLYTRDEYIGAWDKEGTNEAIFEILVTPNYNAQRNSIGYFTHASGYGECAATESFLEELAKHPGDIRTELFAKETDNGYDGTYPQKYKGRDGQIYVNNPKVVRLSEVYLIAAEAALKAGDTSAAAGYMNTLRKNRIENYTDVASITLDDILLERRLELFTEGHTAWDAWRNGKSVNNKFVGEVKPGDYRTIMAIPIGEITVSRGQLIQNPGY
- glycan array binding signal (z-score) [1]: 0.156
- glycan array binding signal (z-score) [2]: -0.448
- glycan array binding signal (z-score) [3]: -0.145
- glycan array binding signal (z-score) [4]: 0.468
- glycan array binding signal (z-score) [5]: -0.42
- glycan array binding signal (z-score) [6]: -0.51
- glycan array binding signal (z-score) [7]: -0.792
- glycan array binding signal (z-score) [8]: -0.503
- glycan array binding signal (z-score) [9]: -0.235
- glycan array binding signal (z-score) [10]: -0.489
- glycan array binding signal (z-score) [11]: -0.448
- glycan array binding signal (z-score) [12]: -0.141
- glycan array binding signal (z-score) [13]: -0.255
- glycan array binding signal (z-score) (GlcNAc(b1-3)Fuc): -0.078
- glycan array binding signal (z-score) (GlcNAc(b1-3)Gal): -0.469
- glycan array binding signal (z-score) [14]: -0.117
- glycan array binding signal (z-score) (GlcNAc(b1-3)Gal(b1-4)Glc): -0.21
- glycan array binding signal (z-score) [15]: -0.402
- glycan array binding signal (z-score) [16]: -0.047
- glycan array binding signal (z-score) [17]: 0.319
- glycan array binding signal (z-score) [18]: 0.033
- glycan array binding signal (z-score) [19]: 0.39

Reference: the supplement of paper PMC8728848
